The supplement of paper PMC8728848
Some of the results follow.

What was measured:
Experiment in all cases: glycan array binding signal (z-score within array); higher = stronger binding
Details in all cases: glycan notation: IUPAC condensed, linker removed
[1] = target: Neu5Ac(a2-6)Gal(b1-4)GlcNAc(b1-2)Man(a1-3)[Man(a1-6)]Man(b1-4)GlcNAc(b1-4)GlcNAc
Procedure, shortened: (§1)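 The binding signal is a Z-score computed within each array. Data were drawn from 3228 arrays in the Consortium for Functional Glycomics database, restricted to those with a known protein sequence. Scores were averaged over arrays of the same protein sequence at different concentrations or buffers, and over linkers, and negative values can be taken as non-binding.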

[2] = target: Neu5Ac(a2-6)Gal(b1-4)GlcNAc(b1-2)Man(a1-3)[Neu5Ac(a2-3)Gal(b1-4)GlcNAc(b1-2)Man(a1-6)]Man(b1-4)GlcNAc(b1-4)GlcNAc
Procedure, shortened: as §1

[3] = target: Neu5Ac(a2-6)Gal(b1-4)GlcNAc(b1-2)Man(a1-3)[Neu5Ac(a2-6)Gal(b1-4)GlcNAc(b1-2)Man(a1-6)]Man(b1-4)GlcNAc(b1-4)GlcNAc
Procedure, shortened: as §1

[4] = target: Neu5Ac(a2-6)Gal(b1-4)GlcNAc(b1-2)Man(a1-3)[Neu5Ac(a2-6)Gal(b1-4)GlcNAc(b1-2)Man(a1-6)]Man(b1-4)GlcNAc(b1-4)[Fuc(a1-6)]GlcNAc
Procedure, shortened: as §1

[5] = target: Neu5Ac(a2-6)Gal(b1-4)GlcNAc(b1-2)Man(a1-6)Man(b1-4)GlcNAc(b1-4)GlcNAc
Procedure, shortened: as §1

[6] = target: Neu5Ac(a2-6)Gal(b1-4)GlcNAc(b1-2)Man(a1-6)[Gal(b1-4)GlcNAc(b1-2)Man(a1-3)]Man(b1-4)GlcNAc(b1-4)GlcNAc
Procedure, shortened: as §1

[7] = target: Neu5Ac(a2-6)Gal(b1-4)GlcNAc(b1-2)Man(a1-6)[GlcNAc(b1-2)Man(a1-3)]Man(b1-4)GlcNAc(b1-4)GlcNAc
Procedure, shortened: as §1

[8] = target: Neu5Ac(a2-6)Gal(b1-4)GlcNAc(b1-2)Man(a1-6)[Man(a1-3)]Man(b1-4)GlcNAc(b1-4)GlcNAc
Procedure, shortened: as §1

[9] = target: Neu5Ac(a2-6)Gal(b1-4)GlcNAc(b1-2)[Neu5Ac(a2-6)Gal(b1-4)GlcNAc(b1-4)]Man(a1-3)[GlcNAc(b1-4)][Neu5Ac(a2-6)Gal(b1-4)GlcNAc(b1-2)[Neu5Ac(a2-6)Gal(b1-4)GlcNAc(b1-6)]Man(a1-6)]Man(b1-4)GlcNAc(b1-4)GlcNAc
Procedure, shortened: as §1

[10] = target: Neu5Ac(a2-6)Gal(b1-4)GlcNAc(b1-2)[Neu5Ac(a2-6)Gal(b1-4)GlcNAc(b1-4)]Man(a1-3)[GlcNAc(b1-4)][Neu5Ac(a2-6)Gal(b1-4)GlcNAc(b1-4)Man(a1-6)]Man(b1-4)GlcNAc(b1-4)GlcNAc
Procedure, shortened: as §1

[11] = target: Neu5Ac(a2-6)Gal(b1-4)GlcNAc(b1-2)[Neu5Ac(a2-6)Gal(b1-4)GlcNAc(b1-6)]Man(a1-6)[Neu5Ac(a2-6)Gal(b1-4)GlcNAc(b1-2)Man(a1-3)][GlcNAc(b1-4)]Man(b1-4)GlcNAc(b1-4)GlcNAc
Procedure, shortened: as §1

[12] = target: Neu5Ac(a2-6)Gal(b1-4)GlcNAc(b1-3)Gal(b1-3)GlcNAc
Procedure, shortened: as §1

[13] = target: Neu5Ac(a2-6)Gal(b1-4)GlcNAc(b1-3)Gal(b1-4)GlcNAc
Procedure, shortened: as §1

[14] = target: Neu5Ac(a2-6)Gal(b1-4)GlcNAc(b1-3)Gal(b1-4)GlcNAc(b1-2)Man(a1-3)[Neu5Ac(a2-6)Gal(b1-4)GlcNAc(b1-3)Gal(b1-4)GlcNAc(b1-2)Man(a1-6)]GalNAc
Procedure, shortened: as §1

[15] = target: Neu5Ac(a2-6)Gal(b1-4)GlcNAc(b1-3)Gal(b1-4)GlcNAc(b1-3)Gal(b1-4)GlcNAc
Procedure, shortened: as §1

[16] = target: Neu5Ac(a2-6)Gal(b1-4)GlcNAc(b1-3)Gal(b1-4)GlcNAc(b1-3)Gal(b1-4)GlcNAc(b1-2)Man(a1-3)[Neu5Ac(a2-6)Gal(b1-4)GlcNAc(b1-3)Gal(b1-4)GlcNAc(b1-3)Gal(b1-4)GlcNAc(b1-2)Man(a1-6)]GalNAc
Procedure, shortened: as §1

[17] = target: Neu5Ac(a2-6)Gal(b1-4)GlcNAc(b1-3)Gal(b1-4)GlcNAc(b1-3)GalNAc
Procedure, shortened: as §1

[18] = target: Neu5Ac(a2-6)Gal(b1-4)GlcNAc(b1-3)Gal(b1-4)GlcNAc(b1-3)[Neu5Ac(a2-6)Gal(b1-4)GlcNAc(b1-3)Gal(b1-4)GlcNAc(b1-6)]GalNAc
Procedure, shortened: as §1

[19] = target: Neu5Ac(a2-6)Gal(b1-4)GlcNAc(b1-3)Gal(b1-4)GlcNAc(b1-6)[Gal(b1-3)]GalNAc
Procedure, shortened: as §1

[20] = target: Neu5Ac(a2-6)Gal(b1-4)GlcNAc(b1-3)Gal(b1-4)[Fuc(a1-3)]GlcNAc(b1-3)Gal(b1-4)[Fuc(a1-3)]GlcNAc
Procedure, shortened: as §1

[21] = target: Neu5Ac(a2-6)Gal(b1-4)GlcNAc(b1-3)GalNAc
Procedure, shortened: as §1

[22] = target: Neu5Ac(a2-6)Gal(b1-4)GlcNAc(b1-3)[Neu5Ac(a2-6)Gal(b1-4)GlcNAc(b1-6)]GalNAc
Procedure, shortened: as §1

[23] = target: Neu5Ac(a2-6)Gal(b1-4)GlcNAc(b1-6)GalNAc
Procedure, shortened: as §1

[24] = target: Neu5Ac(a2-6)Gal(b1-4)GlcNAc(b1-6)[Gal(b1-3)GlcNAc(b1-3)]Gal(b1-4)Glc
Procedure, shortened: as §1

[25] = target: Neu5Ac(a2-6)Gal(b1-4)GlcNAc(b1-6)[Gal(b1-3)]GalNAc
Procedure, shortened: as §1

[26] = target: Neu5Ac(a2-6)Gal(b1-4)GlcNAc6S
Procedure, shortened: as §1

Neu5Ac(a2-6)GalNAc = target: Neu5Ac(a2-6)GalNAc
Procedure, shortened: as §1

[27] = target: Neu5Ac(a2-6)GalNAc(b1-4)GlcNAc
Procedure, shortened: as §1

[28] = target: Neu5Ac(a2-6)GalNAc(b1-4)GlcNAc6S
Procedure, shortened: as §1

[29] = target: Neu5Ac(a2-6)GlcNAc(b1-4)GlcNAc
Procedure, shortened: as §1

[30] = target: Neu5Ac(a2-6)GlcNAc(b1-4)GlcNAc(b1-4)GlcNAc
Procedure, shortened: as §1

B1: FimA-N1 (Actinomyces oris) (protein)
chain: MHHHHHHSSGVDLGTENLYFQSNATETPNYGNIKTDATGSLVIHKHLTGGGKDIGTPTGTAQNADDKGPAVEGVVFTAYPITDINLKDPAGWDTISNLSRTGVPDSACANPAAPTLGAHQFGTPKVSPATTKEGLATITEMPVQAYLVCETTTPGDIVQKAKPFVVTIPHPNTAAGADGQWIYDVNVYPKNEAIDVDKTIQAQK
[1]
  glycan array binding signal (z-score): -0.43
[2]
  glycan array binding signal (z-score): -0.034
[3]
  glycan array binding signal (z-score): 0.01
[4]
  glycan array binding signal (z-score): -0.319
[5]
  glycan array binding signal (z-score): -0.347
[6]
  glycan array binding signal (z-score): -0.197
[7]
  glycan array binding signal (z-score): -0.35
[8]
  glycan array binding signal (z-score): 0.056
[9]
  glycan array binding signal (z-score): 0.07
[10]
  glycan array binding signal (z-score): -0.287
[11]
  glycan array binding signal (z-score): -0.365
[12]
  glycan array binding signal (z-score): -0.02
[13]
  glycan array binding signal (z-score): -0.303
[14]
  glycan array binding signal (z-score): -0.39
[15]
  glycan array binding signal (z-score): -0.267
[16]
  glycan array binding signal (z-score): 0.256
[17]
  glycan array binding signal (z-score): -0.553
[18]
  glycan array binding signal (z-score): -0.041
[19]
  glycan array binding signal (z-score): -0.302
[20]
  glycan array binding signal (z-score): 0.093
[21]
  glycan array binding signal (z-score): 0.296
[22]
  glycan array binding signal (z-score): -0.218
[23]
  glycan array binding signal (z-score): -0.288
[24]
  glycan array binding signal (z-score): -0.313
[25]
  glycan array binding signal (z-score): -0.149
[26]
  glycan array binding signal (z-score): -0.202
Neu5Ac(a2-6)GalNAc
  glycan array binding signal (z-score): -0.3
[27]
  glycan array binding signal (z-score): -0.311
[28]
  glycan array binding signal (z-score): 0.191
[29]
  glycan array binding signal (z-score): -0.533
[30]
  glycan array binding signal (z-score): 0.006
